Assay results as given in patent publication US11339192B2, “Bicyclic peptidyl inhibitors” (priority 2017, dated 2022).
For part of these data: At least one peptide structure holds a part that was inferred or is arguable (an end, a ring closure or a residue). For part of these data: For at least one compound, name, drawing or mass did not settle the structure. Numbered stars: 1 amine (or outer) side, 2 acyl side, 3 side chain; on linkers, the order of the positions; unused ones are H or OH. Bridge positions count the residues as written; N and C are the ends. Square brackets hold non-standard residues; d marks the D form. Peptide text beside a SMILES is read from it. Trimesoyl = O=C(c1cc(C(=O)[*:2])cc(C(=O)[*:3])c1)[*:1]; 2Nal = N[C@@H](Cc1ccc2ccccc2c1)C(=O)O; Dap = NC[C@H](N)C(=O)O; βAla = NCCC(=O)O

Tests used:
[1] = tested on: NF-κB activation in HEK293(Luc) cells; assay: NF-κB luciferase assay; format: cell-based; details: TNFα 5 ng/mL, 2 h preincubation, read-out: IC50, inhibition of TNFα-induced NF-κB activation
Protocol: The ability of the bicyclic peptidyl inhibitors to inhibit NF-κB Signaling was analyzed. The ability of peptide 7 to enter the cell and block the intracellular NEMO-IKK interaction was assessed by using HEK293(Luc) cells, which harbor a luciferase gene under the transcriptional control of NF-κB. For the NF-κB Luciferase Assays, culture media was exchanged for DMEM containing 10% FBS and 1% penicillin/streptomycin the day before seeding to remove hygromycin B. HEK293(Luc) cells were seeded in 50 μL of assay medium (DMEM, 10% FBS, and 1% penicillin/streptomycin) in an opaque 96-well microplate (3000 cells per well) and incubated overnight. The peptide inhibitors were added to the cells the next day in 5 μL of assay medium and the plate was incubated at 37° c. for 2 h. After that, 5 μL of assay media containing recombinant TNFα (final concentration 5 ng/mL) was added to the wells. The plate was then returned to the incubator for 4 h at 37° c. Finally, 50 μL of ONE-Step luciferase assay reagent was added to each well and after 10 minutes the luminescence was measured on a Tecan Infinite M1000 Pro microplate reader. Data presented were the mean±SD of at least three independent experiments (n=6 for basal activities).

[2] = tested on: A375 cells; details: Ianaro et al., Cancer Lett. 2009; cited from earlier work
[3] = biological target: T1, NEMO-IKKβ interaction (Homo sapiens, UniProt Q9Y6K9); assay: HTRF assay of inhibition of the NEMO-IKKβ interaction; format: binding; details: mean±SD of three experiments
T1 construct: cells were transformed with a pGEX4T3-NEMO(1-196) plasmid; made in house; host or cells: Escherichia coli BL21(DE3)
T1 sequence (Q9Y6K9 1-196): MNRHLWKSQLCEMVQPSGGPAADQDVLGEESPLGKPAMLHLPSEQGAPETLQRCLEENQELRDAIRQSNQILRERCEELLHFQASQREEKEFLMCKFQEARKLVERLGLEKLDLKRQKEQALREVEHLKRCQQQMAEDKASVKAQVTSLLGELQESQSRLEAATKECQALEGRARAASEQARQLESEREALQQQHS

## CC[C@H](C)[C@H](NC(=O)[C@H](CCCCN)NC(=O)[C@@H](NC(=O)[C@H](CCC(N)=O)NC(=O)[C@@H](N)CCCNC(=N)N)[C@@H](C)CC)C(=O)N[C@@H](Cc1c[nH]c2ccccc12)C(=O)N[C@@H](Cc1ccccc1)C(=O)N[C@@H](CCC(N)=O)C(=O)N[C@@H](CC(N)=O)C(=O)N[C@@H](CCCNC(=N)N)C(=O)N[C@@H](CCCNC(=N)N)C(=O)N[C@@H](CCSC)C(=O)N[C@@H](CCCCN)C(=O)N[C@@H](Cc1c[nH]c2ccccc12)C(=O)N[C@@H](CCCCN)C(=O)N[C@@H](CCCCN)C(=O)NCC(=O)NCC(=O)N[C@H](C(=O)N[C@@H](C)C(=O)N[C@@H](CC(C)C)C(=O)N[C@@H](CC(=O)O)C(=O)N[C@@H](Cc1c[nH]c2ccccc12)C(=O)N[C@@H](CO)C(=O)N[C@@H](Cc1c[nH]c2ccccc12)C(=O)N[C@@H](CC(C)C)C(=O)N[C@@H](CCC(N)=O)C(=O)N[C@H](C(=O)N[C@@H](CCC(=O)O)C(=O)O)[C@@H](C)O)[C@@H](C)O [Peptide 1, reference compound]
[1]
  IC50: ~41 µM
[2]
  effect on A375 cells: decreased the NF-κB activity and induced growth arrest and apoptosis

## CC[C@H](C)[C@@H]1NC(=O)[C@H](Cc2c[nH]c3ccccc23)NC(=O)CNC(=O)c2cc3cc(c2)C(=O)NC[C@@H](C(=O)NCCC(=O)NCCC(=O)N[C@@H](CCCCN)C(=O)O)NC(=O)[C@H](CCCNC(=N)N)NC(=O)[C@@H](CCCNC(=N)N)NC(=O)[C@H](CCCNC(=N)N)NC(=O)[C@H](Cc2ccc4ccccc4c2)NC(=O)[C@H](C)NC(=O)[C@H](CNC3=O)NC(=O)[C@H](C)NC(=O)[C@H](Cc2ccc(O)cc2)NC1=O [Peptide 15, Tm(GWIYA)Δ(AΦRrRΔ)-BBK] (GWIYA[Dap]A[2Nal]R[dR]R[Dap][βAla][βAla]K-OH; linker N-6-12 via Trimesoyl; C-terminus assumed)
[3]
  IC50: 1.9 ± 0.2 µM
